This assay deals with BHK tk. Put plainly: Sensitivity of guanylate kinase transfectant pools to ACV in TK expressing clones. Type of assay: cell-based, hamster. The following applies: gmk+75 D4 expressing cells. As for the experimental part: pREP8-7, pREP8-7:hgmk and pREP8-7:mgmk are used to transfect BHK tk, TK-transfected clone C3 and 75-transfected clone D4. Histidinol is used to select pools of stable transfectants and to isolate individual clones.
As in Example 8, pools of transfectants are placed in 96 well microtiter dishes at 1000 cells/well. Eight replicates are incubated for three days in the presence of various GCV or ACV concentrations.

B1: gmk+75 D4: guanylate kinase co-expressed in 75-transfected BHK clone D4 (protein, UniProt Q64520 1-198, looked up)
Guanylate kinase: MAGPRPVVLSGPSGAGKSTLLKKLFQEHSSIFGFSVSHTTRNPRPGEEDGKDYYFVTREMMQRDIAAGDFIEHAEFSGNLYGTSKEAVRAVQAMNRICVLDVDLQGVRSIKKTDLCPIYIFVQPPSLDVLEQRLRLRNTETEESLAKRLAAARTDMESSKEPGLFDLVIINDDLDKAYATLKQALSEEIKKAQGTGHA
For the molecule B1, the “sensitivity to ACV greater than that of TK expressing cells” value is reported as 6-7 times.

The values above are taken from US8163528B2, “Nucleic acid molecules encoding thymidine kinase fusion proteins” (Darwin Molecular Corporation, priority 1997, dated 2012).
